# Source: publication PMC6919601, “Identification of Plasmodium dipeptidyl aminopeptidase allosteric inhibitors by high throughput screening” (PLoS ONE, 2019)
# Where “and” joins values, the source holds several entries; their conditions need not be identical. Equal entries are not always repeated. About 230 (0.21%) of roughly 110,000 compounds showed an effect of 50% or more. This is one part of the list.
# Target: DPAP1 (Plasmodium falciparum, UniProt Q8IIJ9)
# Experiment: primary screen, percent inhibition; read by cleavage of a fluorogenic dipeptide substrate; higher = more effect of the substance
# Set-up: species or system P. falciparum D10 trophozoite lysates; single well
# 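Further: 30 min substrate incubation versus DMSO and 10 µM JCP410 controls.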
# DPAP1, sequence (Q8IIJ9 whole entry, looked up): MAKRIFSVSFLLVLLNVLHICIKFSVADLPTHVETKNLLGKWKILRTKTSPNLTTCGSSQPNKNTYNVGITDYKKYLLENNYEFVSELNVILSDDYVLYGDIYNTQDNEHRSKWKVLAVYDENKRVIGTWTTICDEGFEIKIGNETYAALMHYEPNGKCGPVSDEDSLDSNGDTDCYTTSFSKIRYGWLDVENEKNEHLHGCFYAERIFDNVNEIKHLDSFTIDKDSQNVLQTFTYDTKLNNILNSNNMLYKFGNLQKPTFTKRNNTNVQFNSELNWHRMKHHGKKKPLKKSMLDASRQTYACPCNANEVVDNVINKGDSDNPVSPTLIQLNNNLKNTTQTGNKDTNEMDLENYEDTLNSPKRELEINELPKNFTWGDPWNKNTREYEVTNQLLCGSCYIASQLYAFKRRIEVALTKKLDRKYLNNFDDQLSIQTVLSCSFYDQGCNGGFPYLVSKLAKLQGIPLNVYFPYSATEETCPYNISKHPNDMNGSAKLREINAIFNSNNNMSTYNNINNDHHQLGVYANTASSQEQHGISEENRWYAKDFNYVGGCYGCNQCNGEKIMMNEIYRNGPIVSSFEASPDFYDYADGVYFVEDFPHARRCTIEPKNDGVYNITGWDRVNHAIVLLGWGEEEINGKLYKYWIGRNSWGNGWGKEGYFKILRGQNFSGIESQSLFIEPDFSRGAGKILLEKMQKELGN
row,SMILES,% Inhibition @ 10 uM
1,CCCN1C/C(=C\c2ccc(O)c(OC)c2)C(=O)/C(=C/c2ccc(O)c(OC)c2)C1,1.21%
2,COc1ccc(NC(=O)C2=C(C)Nc3nc(-c4ccccc4)nn3C2c2ccc(O)cc2)cc1 (stereo not shown),-7.96%
3,O=C(c1ccc([N+](=O)[O-])cc1Cl)N1CCN(c2ccc(F)cc2)CC1,7.53%
4,O=C(NCc1ccccc1)/C(=C\C=C\c1ccccc1)NC(=O)c1ccccc1,-1.29%
5,COc1ccc(CN(Cc2ccccc2)S(=O)(=O)c2c(C)ccc3nsnc23)cc1,3.38%
6,CCC/N=c1\c(NC(=O)c2ccccc2C)c(O)oc2ccccc12,4.45%
7,O=C(NCCc1nc(-c2ccccc2)cs1)c1ccc(Br)cc1,0.503%
8,Cc1[nH]c2ccc(C(=O)NC3CCC(C)CC3)cc2c1C (stereo not shown),2.12%
9,O=C(NCCCN1CCOCC1)C1CCN(c2ncnc3c2nc2n3CCCCC2)CC1,2.59%
10,CC1(C)CC(NC(=O)C23CC4CC(CC(C4)C2)C3)CC(C)(C)N1,0.76%
11,Cn1c(=O)c2c(nc(Sc3nc4ccccc4n3Cc3ccccc3)n2C)n(C)c1=O,-2.4%
12,CC(C)NC(=O)c1ccc2nc(SCc3ccc(F)cc3)n(C)c2c1,-9.67%
13,Cc1ccc(CCNC(=O)C2=Cc3sc(C)c(C)c3CS2)cc1,3.22%
14,O=C1NC(=O)C2(C(=O)N1)C(c1cccs1)NC(=S)NC2c1cccs1 (stereo not shown),6.03%
15,COC(=O)CCNC(c1ccccc1)c1ccccc1,1.64%
16,CC(=O)N1CN(C2CCCC2)Cc2c1sc1c2CCCC1,-2.94%
17,Cn1nc(C(=O)N2CCC(N3CCCCC3)CC2)c2c1-c1ccccc1S(=O)(=O)C2,5.04%
18,O=C(Cn1c(=O)c2cccn2c2cccnc21)NC1CCN(Cc2ccccc2)CC1,2.6%
19,CCc1ccc(CN(C(=O)c2nc(S(=O)(=O)CC)ncc2Cl)C2CCS(=O)(=O)C2)cc1 (stereo not shown),-2.85%
20,Cc1nc2c(-c3ccc(F)cc3)c(C)nn2c(C)c1CCC(=O)NCc1ccc2c(c1)OCO2,-0.465%
21,CCCCN(CCCC)S(=O)(=O)c1ccc(N2CCCC2=O)c([N+](=O)[O-])c1,-7.42%
22,CCn1ncc(Br)c1C(=O)NC1CCCCCCC1,-1.57%
23,O=C(NCCN1CCc2ccccc2C1)C1CCN(S(=O)(=O)N2CCC3(CC2)OCCO3)CC1,0.514%
24,Cc1ccc(S(=O)(=O)N(C)c2ccc(C(=O)Nc3ccc4c(c3)OCCO4)cc2)cc1,0.161%
25,COc1ccccc1CNCc1ccccc1C,3.44%

row,SMILES,% Inhibition @ 10 uM
1,N#C/C(=C\c1ccc(Br)o1)c1nc(-c2ccccc2)cs1,0.247%
2,Cc1cc(NC(=O)CSc2cn(CC(=O)N3CCOCC3)c3ccccc23)no1,-0.264%
3,CCN(CC)CCCOc1cccc(C)c1C,2.05%
4,O=S(=O)(NC(c1cccs1)C(Cl)(Cl)Cl)c1ccccc1 (stereo not shown),15.6%
5,Fc1ccc(CN2CCc3c([nH]c4ccccc34)C2)cc1,1.48%
6,Cc1nn(C)c2c1c(-c1ccccc1)cc(=O)n2C(C)C(=O)NCc1ccc2c(c1)OCO2 (stereo not shown),0.234%
7,CCOc1ccc(/C=C2/C=C(c3ccc(C)cc3)OC2=O)cc1OC,1.84%
8,CC(C)CCNC(=O)c1cc2sccc2n1C,-8.58%
9,COc1cc(Cl)c(C)cc1NC(=O)c1ccccc1Cl,-3.16% and -2.29%
10,CN1CCC(NC2CCN(Cc3ccccc3)CC2)CC1,3.19%
11,CN(C)/C=C/C=C/C=C/C1=[N+](C)c2ccccc2C1(C)C,1.31%
12,O=S(=O)(Nc1ccc(-c2cn3ccsc3n2)cc1)c1ccc2ccccc2c1,6.24%
13,Cc1ccc(SCc2n[nH]c3c2C(c2ccc(C)o2)C(C#N)=C(N)O3)cc1 (stereo not shown),-4.49%
14,CCOc1ccc2ncc(S(=O)(=O)c3ccc(F)cc3)c(O)c2c1,-5.49%
15,Cc1ccc2c(=O)cc(C(=O)Nc3sc4c(c3C#N)CCCC4)oc2c1C,0.248%
16,CN(C)c1ccc(/C=C2\SC(N3CCCC3)=NC2=O)cc1,-1.98%
17,CCCc1[nH]nc2c1C(c1ccc(OCCN3CCOCC3)c(OC)c1)C(C#N)=C(N)O2 (stereo not shown),-6.36%
18,CN1C(c2ccccc2)CC(O)CC1c1ccccc1 (stereo not shown),2%
19,CC1=CC(C)(C)N(Cc2ccc([N+](=O)[O-])cc2)c2cc(C)ccc21,-3.93%
20,O=C(O)CCc1nnc2ccc(Cl)nn12,0.708%
21,CCOc1ccc(C(=O)NC2CCCCC2)cc1,15.2%
22,Cc1noc2ncnc(NCC3CCN(Cc4ccc(Cl)cc4)CC3)c12,-0.171%
23,COc1ccccc1-n1c(C)c(C(=O)O)c2cc(OC)c3ccccc3c21,-0.467%
24,N#CC1=C(N)Oc2[nH]nc(-c3ccccc3)c2C1c1ccc(Cl)s1 (stereo not shown),0.851%
